In the supplement of paper PMC10338343:
± gives the standard deviation. Only a part is listed here, and it is no random draw.

Each sequence was assayed on MIWI (PIWIL1) piRISC loaded with piRNA #1 (30 nt) (assay: pre-steady-state target cleavage rate (min^-1); MIWI and MILI are mouse PIWI proteins and EfPiwi is from a freshwater sponge; tags in brackets are library labels; higher = faster piRNA-guided slicing of the target). Conditions: guide: piRNA #1 5'p-UGAGGUAGUAGGUUGUAUAGUAUCCAGAGG; auxiliary factor: 500 nM mouse GTSF1.
Procedure, shortened: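 Using HEPES–potassium acetate buffer at 33 °C, 1 nM active affinity-purified piRISC with a single synthetic guide was mixed with 0.1 nM transcribed, DNA-blocked target RNA library for 0–8 or 0–960 min, with or without 500 nM GTSF1 partner protein. Uncleaved targets were sequenced and normalised to depth and to weakly complementary targets, and three trials were pooled with k3 capped at 0.0001 min^-1. A burst-and-steady-state fit gave the pre-steady-state cleavage rate.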

First: GGACUGGAUACAAUACAAGCUACUACCUCA
Second: CCUCUGGAUACUAUACAACCUAGAUGGAGA [g9:g30:cont:t1A]
The “pre-steady-state target cleavage rate” value of the first is higher: 0.683 ± 0.041 for the first, 0.00573 ± 0.004 for the second.

Compared with GCUCUGGAUACUAUUCAACCUACUAGCUCA, GGUCUGGAUACUAUACAACCUAUUACCUCA is lower in “pre-steady-state target cleavage rate” value: 1.3 ± 0.13 for the first, 1.09 ± 0.079 for the second.

Compared with GGUCUGGAUACUAUACAACCUACAUGCUCA, GGACUGGAUACUAUACAACCUACUACGUGA is higher in “pre-steady-state target cleavage rate” value: 0.00673 ± 0.0025 for the first, 0.0214 ± 0.0061 for the second.

First: GGAGACCUAACAUUACAACCUACUACCUCA
Second: GGAGUGGAUACAAUAGAACCUACUACCUCA
The “pre-steady-state target cleavage rate” value of the first is lower: 0.00846 ± 0.0049 for the first, 1.12 ± 0.056 for the second.

First: GGACUGGAUACUAGACAACCUACUACCUCA
Second: GGAGACGAUACUAUACAACCGACUACCUCA
The “pre-steady-state target cleavage rate” value of the first is higher: 1.69 ± 0.12 for the first, 0.0129 ± 0.0025 for the second.

Compared with GGAGACGUUACUAUACAACCAACUACCUCA, GGAGACCUAACUAUACUACCUACUAGCUCA is lower in “pre-steady-state target cleavage rate” value: 0.117 ± 0.012 for the first, 0.0104 ± 0.004 for the second.

First: GGAGACCUAUGAUAUGUUGCAAGUACCUCA
Second: GGAGACGAUUCUAUUCAACCUACUACCUCA
The “pre-steady-state target cleavage rate” value of the first is lower: < 0.0001 for the first, 1.6 ± 0.13 for the second.

Going from GGACUGGAUAGUAUACAAGCUACUACCUCA to GGAGACCAUACUAUACAACCUACUGACCUCA, the “pre-steady-state target cleavage rate” value rises from 0.313 ± 0.037 to 0.414 ± 0.038.
